Laboratory results: patent publication US10022453B2, “Antibody drug conjugates (ADCs) with kinesin spindel protein (KSP)” (BAYER PHARMA AKTIENGESELLSCHAFT, priority 2013, dated 2018)

B1: PDL-192: "agonistic antibodies already described [e.g. PDL-192(TPP-1104)"; "reference antibodies"; anti-TWEAKR antibody with "moderate agonistic activity" (protein, listed as Homo Sapiens)
light: DIQMTQSPSSLSASVGDRVTITCRASQSVSTSSYSYMHWYQQKPGKAPKLLIKYASNLESGVPSRFSGSGSGTDFTLTISSLQPEDFATYYCQHSWEIPYTFGGGTKVEIKRTVAAPSVFIFPPSDEQLKSGTASVVCLLNNFYPREAKVQWKVDNALQSGNSQESVTEQDSKDSTYSLSSTLTLSKADYEKHKVYACEVTHQGLSSPVTKSFNRGEC
heavy: QVELVESGGGLVQPGGSLRLSCAASGFTFSSYWMSWVRQAPGKGLEWVAEIRLKSDNYATHYAESVKGRFTISRDDSKNSLYLQMNSLRAEDTAVYYCTGYYADAMDYWGQGTLVTVSS[omitted - human IgG1 constant region]
B2: P4A8: "reference antibodies [PDL-192(TPP-1104), P4A8(TPP-1324)]"; "P4A8 displays a very low agonistic activity" (protein, listed as Homo Sapiens)
light: DIVLTQSPASLAVSLGQRATISCRASKSVSTSSYSYMHWYQQKPGQPPKLLIKYASNLESGVPARFSGSGSGTDFSLNIHPMEEDDTAMYFCQHSRELPFTFGGGTKLEIKRTVAAPSVFIFPPSDEQLKSGTASVVCLLNNFYPREAKVQWKVDNALQSGNSQESVTEQDSKDSTYSLSSTLTLSKADYEKHKVYACEVTHQGLSSPVTKSFNRGEC
heavy: QVQLVQSGAEVKKPGASVKVSCKGSGYTFTDYGMHWVRQAPGQGLEWMGVISTYNGYTNYNQKFKGRVTMTVDKSTSTAYMELRSLRSDDTAVYYCARAYYGNLYYAMDYWGQGTLVTVSS[omitted - human IgG1 constant region]

Experiments:
TWEAKR [1] = assay: NF-kappaB reporter gene assay for agonistic activity of anti-TWEAKR antibodies; assay type: cell-based; conditions: assay not named at b490
Excerpt: 11 different Fab phages were identified, and the corresponding antibodies were cloned into a mammalian EgG expression vector which provides the CH2-CH3 domains missing in the soluble FAb. Following identification of preferred antibodies, these were expressed as full-length IgGs. These constructs were expressed, for example, transiently in mammalian cells as described by Tom et al., Chapter 12 in Methods Express: Expression Systems edited by Micheal R. Dyson and Yves Durocher, Scion Publishing Ltd, 2007 (see AK-Example 1). The antibodies were purified by protein-A chromatography and characterized further by their binding affinity to soluble monomeric TWEAKR using ELISA and BIAcore analysis, as described in AK-Example 2. To determine the cell binding characteristics of the anti-TWEAKR antibodies, binding was tested by flow cytometry on a number of cell lines (HT29, HS68, HS578). NFiB reporter gene assays were carried out to examine the agonistic activity of all 11 antibodies identified (human IgG1). […] In the end, 7 variants were selected based on increased affinity compared to the best single substitution variant G102T. The corresponding DNA thereof was cloned into a mammalian IgG expression vector and examined for functional activity in the NF-kappaB reporter gene assay mentioned above. […]

TWEAKR [2] = assay: NF-kappaB reporter gene assay, agonistic activity; assay type: cell-based
Protocol: NF-kappaB reporter gene assays were carried out to assess the agonistic activity of all 11 antibodies identified (human IgG1). HEK293 cells were transiently transfected with an NF-kappaB reporter construct (BioCat, Cat. No. LR-0051-PA) using 293fectin according to the instructions of the manufacturer. Transfected cells were sown in F17 media (serum-free; Invitrogen) at 37 C, 5% CO2 into white polylysine-coated 384-well plates (BD). The next day, the cells were stimulated with various concentrations of purified antibodies for 6 h, and a luciferase assay was then carried out using standard methods.
Maturation was carried out in a first mutations collection round, followed by recombination of those amino acid modifications which increased affinity and activity most. […] 96 variants of each of the 12 selection pools were expressed as soluble Fabs and examined in an ELISA format. […]

TWEAKR [3] = conditions: from the literature (Michaelson et al., Culp et al., Pellegrini et al.); cited from earlier work
[4] = target: T1, recombinant human TWEAKR protein (TPP-2305) (Homo sapiens, UniProt Q9NP84); conditions: published data (WO2009/020933, WO2009/140177, literature); cited from earlier work
T1 construct: purchased Fitzgerald Inc 30R-AT080

Row | Molecule | agonistic activity at TWEAKR (TWEAKR [1]) | Agonistic activity (TWEAKR [2]) | agonistic activity / activation of TWEAKR (TWEAKR [3]) | Kd [4]
1 | B1 | moderate agonistic activity | moderate agonistic activity | limited | 5.5 nM
2 | B2 | very low agonistic activity | very low agonistic activity | – | 2.6 nM
